Measured values: the RNAGym collection of RNA variant scans (doi:10.1073/pnas.2313332121)
Variants at the background level are over-represented here.

B1: TPR 5TU (parent)
chain: GGAUCUUCUCGAUCUAACAAAAAAGACAAAUCUGCCACAAAGCUUGAGAGCAUCUUCGGAUGCAGAGGCGGCAGCCUUCGGUGGCGCGAUAGCGCCAACGUUCUCAACUAUGACACGCAAAACGCGUGCUCCGUUGAAUGGAGUUUAUCAUG

Variants of: B1
Test: polymerase ribozyme fitness, log enrichment relative to wild type (log ratio); higher = more active; in vitro selection for triplet polymerase activity
Procedure, shortened: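 Mutant libraries of each subunit of a heterodimeric triplet polymerase ribozyme were built by PCR and transcribed. Each library went through one round of in vitro selection in triplicate: annealing with biotinylated primer, partner subunit and triplets, frozen incubation at −7 °C, gel excision of extended constructs, streptavidin-bead capture and RT-PCR. Input and output libraries were Illumina-sequenced; only genotypes with ≥10 input reads and ≥1 read per output were kept. Fitness is log2(genotype enrichment/wild-type enrichment), using inverse-variance-weighted replicate averages.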

Variant | polymerase ribozyme fitness (log ratio)
GGAUCUUCUCGAUCUAACAAAAAAGACAAAUCUGCCACAAAGCUUGAGAGCGUCUUCGGAUGCAGAGGCGGCAGCCUUCGGUGUCGCGAUAGCGCGAACGUUCUCAACUAUGACACGCAAAACGCGUGCUCCGUUGAAUCGAGUUUAACAUG | ≤ -4.2
GGAUCUUCUCGAUCUAACAAAAAAGACAAAUCUGCCACAAAGCUUGAGAGCGUCUUCGGAUGCAGAGGCGGCAGCCUUCGGUGACGCGAUAGCGCCAACGUUCUCAACUAUGACACGUAAAAGGCGUGCUCCGUUGAAUGGAGUUUAUCAUG | -1.29
GGAUCUUCUCGAUCUAACAAAAAAGACAAAUCUGCCACAAAGCUUGAGAGCGUCUUCAGAUGCAGAGGCGGCAACCUUCGGUGGCGCGAUAGCGCCAACGUUCUCCACUAUGACACGCAAAACGCGUGCUCCGUUGAAUGGAGUUUAUCAUG | ≤ -4.2
GGAUCUUCUCGAUCUAACAAAAAAGACAAAUCUGCCACAAAGCUUGAGAGCGUCUUCGGAUGCAGAGGCGGCAGCCUUCGGUGGCGCGAUAGCGCCAACGUUCUCAACGAUGACACGCAAAUCGCGUGCUCCGUUGAAUGGAGUUUAUCAUG | -1.46
GGAUCUUCUCGAUCUAACAAAAAAGACAAAUCUGCCACAAAGCUUGAGAGCGUCUUCGGAUGCAGAGGCGGCAGCCUUCGGUGGCGCGAUAGCGCUAACGAUCUCAACUAUGACACGCAAAACGCGUGCUCCGUUGAAUGGUGUUUAUCGUG | ≤ -4.2
GGAUCUUCUCGAUCUAACAAAAAAGACAAAUCUGCCACAAAGCUUGAGAGCGUCUUCGGAUGCAGAGGCGGCAGCCUUCGGUGGCGCGAUAGCGCCAACGUUCUCAACUAUGAAACGCAAAACGCGUGCUCCGUUGAAUGGAGUUUAUCAUG | -3.48
GGAUCUUCUCGAUCUAACAAAAAAGACAAAUCUGCCACAAAGCUUGAGAGCGUCAUCGGAUGCAGAGGCGGCAGCGUUCGCUGGCGCGAUAGCGCCAACGUUCUCAACUAUGACACGCAAUACGCGUGCUCCGUUGAAUGGAGUUUAUCAUG | ≤ -4.2
GGAUCUUCUCGAUCUAACAAAAAAGACAAAUCUGCCACAAAGCUUGAGAGCGUCUUCGGAUGCAGAGGCGGCAGCCUUCGGAGGCGCGAUAGCGCCAACGUUCUCAACUAUGACACGCAAAACGCGUGCUCCGUUGAAUGGAGUUUAUCAUG | -0.467
GGAUCUUCUCGAUCUAACAAAAAAGACAAAUCUGCCACAAAGCUUGAGAGCUUCUUCGGGUGCAGAGGCGGCAGCCUUCGGUGGCGAGAUAGCGCCAACGUUCUCAACUAUGACACGCAAAACGCGUUCUGCGUUGAAUGGAGUUUAUCAUG | ≤ -4.2
GGAUCUUCUCGAUCUAACAAAAAAGACAAAUCUGCCACAAAGCUUGAGAGCGUCUACGGAUGCAGAGGCGGCGGCCUUCGGUGGCGCGAUAGAGCCAACGUUCUCAACUAUGACACGCAAAACGCGUGCUCCGUUGAAUAGAGUAUAUCAUG | ≤ -4.2
GGAUCUUCUCGAUCUAACAAAAAAGACAAAUCUGCCACAAAGCUUGAGAGCGUCGUCGGAUGCAGAGGCGACAGCCUUCGGUGGAGCGAUAGCGCCAACGUUCUCAACUAUGACACGCAAAACGAGUGCUCCGUUGAAUGGAGCUUAUGAUG | ≤ -4.2
GGAUCUUCUCGAUCUAACAAAAAAGACAAAUCUGCCACAAAGCUUGAGAGCGUCUUCGGAUAGAGAGACGGCAGCCUUCGGUGGCGCGAUAGAGCCAACGUUCUCAACUAUGACACGCAAAACGCGUGCUCCGUUGAAUGGAGUUGAUCAUG | ≤ -4.2
GGAUCUUCUCGAUCUAACAAAAAAGACAAAUCUGCCACAAAGCUUGAGAGCGUCAUCGGAUGCAGAGGCGGCAGCCUUCGGUGGCGCGAUAUCGCCAACGUUCUCAACUAUGACACGCAAAACGCGUGCUCCGUUGAAUGGAGUUUAUCAUG | -0.803
GGAUCUUCUCGAUCUAACAAAAAAGACAAAUCUGCCACAAAGCUUGAGAGCGUCUUCGGAUGCAGAGGCGGCAGCCUUCGGUGGCGCGAUACCGCAAACGUUCCCAACUAUGACACGUAGAACGCGUGCUCCGGUGAAUGGAGUUUAUCAUG | ≤ -4.2
GGAUCUUCUCGAUCUAACAAAAAAGACAAAUCUGCCACAAAGCUUGAGAGCGUCUUCGGAUGCAGAGGCGGCAGCCUUCGGUGGCGCGAUAGCGCCAACGUUCGCAACUAUGACACGCAAAACGCGUGCUCCGUUGAAUGGAGUUUAUCAUG | -1.26
GGAUCUUCUCGAUCUAACAAAAAAGACAAAUCUGCCACAAAGCUUGAGAGCGUCUUCUGAUGCAGAGGCGGCAGCUUUCGGUGGCGCGAUAGGGCCAACGUUCUCAACUAUGACACGCAAAACGCGAGCUGCGUUGAAUGGAGUUUAUCAUG | ≤ -4.2
GGAUCUUCUCGAUCUAACAAAAAAGACAAAUCUGCCACAAAGCUUGAGAGCGUCUUCAGAUGCAGAGGCGGCAGCCUUCGGUGGCGCAAUAGCGCCAACGUUCUCAACUAUGACACGCAAAACGCGUGCUCCGUUGAAUGGAGUUUAUCAUG | ≤ -4.2
GGAUCUUCUCGAUCUAACAAAAAAGACAAAUCUGCCACAAAGCUUGAGAGCGUCUUCGGAUGCAGAGGCGGCAGCCUUCGGUGGCGCGAAAGCGCCAACGUUCUCAACUAUGACACGCAAAACGCGUGCUCCGUUGAAUGGGGUUUAUCAUG | ≤ -4.2
GGAUCUUCUCGAUCUAACAAAAAAGACAAAUCUGCCACAAAGCUUGAGAGCGUCUUCGGAUGCAGAGGCGGCAGCCUUCGGUGGCGCUAUAGCGCCAACGUUCUCAACUAUGACACGCAAAACGCGGGCUCCGUUGAAUGGAGUUUAUCAUG | ≤ -4.2

Variant | polymerase ribozyme fitness (log ratio)
GGAUCUUCUCGAUCUAACAAAAAAGACAAAUCUGCCACAAAGCUUGAGAGCGUCUUCGGAUGCAGAGGCGGCAGCCUUCGGUGGCGCGAUAGCUCCAACGUUCUCAACUAUGACCCGCAAAACGCGUGCUGCCUUGAAUGGAGUUUAUCAUG | ≤ -4.2
GGAUCUUCUCGAUCUAACAAAAAAGACAAAUCUGCCACAAAGCUUGAGAGCGUCGUCGGAUGCAGAGGCGGCAGCCUUCGGUGGCGCGAUAGCGCCAACGUUCUCAACUAUGACCCGCAAAACGCGUGGUCCGUUGAAUUGAGUUUAUCAUG | ≤ -4.2
GGAUCUUCUCGAUCUAACAAAAAAGACAAAUCUGCCACAAAGCUUGAGAGCGACUUCGGAUGCAGAGGCGGCAGCCUUCGGUGACGCGAUAGCGCCAACCUUCUCAACUAUGACCCGCAAAACGCGUGCUCCGUUGAAUGGAGUUUGUCAUG | ≤ -4.2
GGAUCUUCUCGAUCUAACAAAAAAGACAAAUCUGCCACAAAGCUUGAGAGCGUCUUCGGAUGCAGAGGCGGCAGCCUUCGGUGGCGCGAUAGCGCCAACGUUGUCAGCUAUGACACUCAAAACGCGUGCUCCGUUGAAUGGAGUUUAUCAUG | ≤ -4.2
GGAUCUUCUCGAUCUAACAAAAAAGACAAAUCUGCCACAAAGCUUGAGAGCGUCUUCGGAUGCAGAGGCGGCAGCCUUCGGUGGCGCGAUACCGCCAACGUUCUCAACUAUGCCGCGCAAAACGCGUGCUCCGUUGAAUGGAGUUCAUCAUG | ≤ -4.2
GGAUCUUCUCGAUCUAACAAAAAAGACAAAUCUGCCACAAAGCUUGAGAGCGUCUUCGGAUACAGAGGCGGCAGCAUUCGGUGGCGCGAUAGCGCCAACGUUCUCAACUAGGACACGCAAAACGCGUGCUCCGUGGAAUGCAGUUUAUCAUG | ≤ -4.2
GGAUCUUCUCGAUCUAACAAAAAAGACAAAUCUGCCACAAAGCUUGAGAGCGUCUUCGGAUGCAGAGGCGGCAGCCUUCGGUGGCGCGAUAGCGCCAACGUUCUAAACUAUGACACGCAAAAAGCGUGCUCCUUUGAAUGGAGGUUAUCAUG | ≤ -4.2
GGAUCUUCUCGAUCUAACAAAAAAGACAAAUCUGCCACAAAGCUUGAGAGCGUCUUCGGAUGCAGAGGCGGCAGCCUUCGGUGACGCGAUAGCGCCAACGUUCUCAACUAUGACACGCAAAACGCGUGCUCCGUUGAAUGGAGUUUAUCAUG | -1.03
GGAUCUUCUCGAUCUAACAAAAAAGACAAAUCUGCCACAAAGCUUGAGAGCGUCUUCGGAUGCAGAGGCGGCAGCCUUCGGUGGCGCAAUAGCGCCAACGUUCUCAACUAUGACACGCAAAACGCGUGCUCCGUUGAAUGGAGUUUAUCAUG | ≤ -4.2
GGAUCUUCUCGAUCUAACAAAAAAGACAAAUCUGCCACAAAGCUUGAGAGCGUCUACGGAUCCAGAGGCGGCAGCCUUCGGUGGUGCGAUAGCGCCAACGUUCUCAACUAUGACACGCAAAACGCGUGCUCCGUUGAAUGGAGUUUAACAUG | ≤ -4.2
GGAUCUUCUCGAUCUAACAAAAAAGACAAAUCUGCCACAAAGCUUGAGAGCGUCUUCGGAUGCAGAGGCGGCAGCCUUCGGUGGCGCGAUACCGCAAACGUUCUCAACUAUGACACGCAAAACGCGUGCUCCGUUGAAUGGAGUUUAACAGG | ≤ -4.2
GGAUCUUCUCGAUCUAACAAAAAAGACAAAUCUGCCACAAAGCUUGAGAGCGUCUUCGUAUGCAGAGCCGGCAGCCUUCGGUGGGGCGAUAGCGCCAACGUUCUCAACUAUGACACGCAGAACGCGUACUCUGUUGAAUGGAGUGUAUCAUG | ≤ -4.2
GGAUCUUCUCGAUCUAACAAAAAAGACAAAUCUGCCACAAAGCUUGAGAGCGUCUUCUGAUGCAGGGGCUGCAGCCUUCGGUGGCGCGAUAACGCCAACAUUCUCAACUAUGACAAGCAAAACGCGUGCUCCGUUGAAUGGAGUUUAACAUG | ≤ -4.2
GGAUCUUCUCGAUCUAACAAAAAAGACAAAUCUGCCACAAAGCUUGAGAGCGUCUUCGGAUGCAGAGGCGGCAGCCUUCGGUGGCGCGAUAGCGCCAACGGUCUCAACUAUGACACGCAAAACGCGUGCUCCGUUGAAUGGAGUUUAUCAUG | -0.16
GGAUCUUCUCGAUCUAACAAAAAAGACAAAUCUGCCACAAAGCUUGAGAGCUUCUUCGGAUGCAGGGGCGGCAGCCUUCGGUGGCGGGAUAGCGCCGACGUUCUCAACUAUGACACGCAAAACGCGUGCUCCGUUGAAUGGAGUUUAUCAUG | ≤ -4.2
GGAUCUUCUCGAUCUAACAAAAAAGACAAAUCUGCCACAAAGCUUGAGAGCGUCUUCGGAUGCAGAGGCGUCAGCCUUCGGUGGCGCGAUAGCGCUAACGUUCUCAACUAUGACACGCAAAACGCGUGCUCCGUUGAAUGGAGUUUAUCAUG | -4.1
GGAUCUUCUCGAUCUAACAAAAAAGACAAAUCUGCCACAAAGCUUGAGAGCGUCUUCGGAUGCAGAGGCGGCAGCCUUCGGUGGCGCUAUAGCGACAACGUUCUCAACUAUGACACGCAAAACGCGUGCUCCGUUGAAUUGAGUUUAUCAUG | ≤ -4.2
GGAUCUUCUCGAUCUAACAAAAAAGACAAAUCUGCCACAAAGCUUGAGAGCGUCUUCGGAUGCAGAGGCGGCAGCCUUCUGUGGCGCGAUACCGCCAACGUUCUCAACUAUGACACGCAAAACGCGUGCUCUGUUGAAUGGAGUUUAUCAUG | ≤ -4.2
GGAUCUUCUCGAUCUAACAAAAAAGACAAAUCUGCCACAAAGCUUGAGAGCGUCUUCGGAUGCAGAGGCGGCAGCCUUCGGUGGCGCGAUAGCGCCAACGUUUUCAACUAUGACACGCAAAACGCGUGCUCCGUUGAAUGGAGUUUAUCAUG | -1.06
